# Assay results taken from the supplement of paper PMC10037445.
# ± gives the standard deviation of the averaged measurements. Over roughly 2,900 compounds, “IRF Lucia reporter activity, fold change vs agonist alone” has its median near 0.9; the highest 2% begin near 2.8. Some of the results follow.
# Tests used:
# RAW-Dual [1] = test: IRF Lucia reporter activity, fold change vs agonist alone; cytotoxicity flag (confluency mask): not cytotoxic; higher = enhanced IRF activity
# Procedure, shortened: (§1)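 After 50 nL of library stock was delivered by pin tool to RAW-Dual macrophages (50,000 cells/well, DMEM, 384-well plates), a PRR agonist was added 1 h later and the plates were kept at 37 °C, 5% CO2. Twenty hours later, IRF was read from supernatant by QuantiLuc luminescence and NF-κB by QuantiBlue absorbance at 620 nm. Reporter activity is stated as fold change over agonist-alone wells. Wells with IncuCyte confluency under 70% of agonist controls in both mask sets were counted as cytotoxic.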
# RAW-Dual [2] = test: IRF Lucia reporter activity, fold change vs agonist alone; higher = enhanced IRF activity; conditions: agonist: MPLA (TLR4) […]
# Procedure, shortened: as §1
# RAW-Dual [3] = test: IRF Lucia reporter activity, fold change vs agonist alone; cytotoxicity flag (confluency mask): cytotoxic (confluency <70% of control); higher = enhanced IRF activity
# Procedure, shortened: as §1
# [4] = agonist: 3'3'-cGAMP (STING) 10 ug/mL
# [5] = library stock concentration (final ~1000-fold dilution): 10 mM, cytotoxicity flag (confluency mask): not cytotoxic
# [6] = library stock concentration (final ~1000-fold dilution): 10 mM, cytotoxicity flag (confluency mask): cytotoxic (confluency <70% of control)
structure (smiles),measurement,setting,value
CN1C(=O)C(Cc2c[nH]c3ccccc23)NC1=S (centres undefined) (library stock concentration (final ~1000-fold dilution): 10 mM),IRF Lucia reporter activity,RAW-Dual [1]; [4],0.553
same,IRF Lucia reporter activity,RAW-Dual [1]; agonist: LPS (TLR4) 0.1 ug/mL,3.04
CN1CCN2c3ccccc3Cc3ccccc3C2C1.Cl (centres undefined),IRF Lucia reporter activity,RAW-Dual [2]; [5],1.29
CN1CCN2c3ccccc3Cc3ccccc3C2C1.Cl (centres undefined) (library stock concentration (final ~1000-fold dilution): 10 mM),IRF Lucia reporter activity,RAW-Dual [1]; [4],0.917
same,IRF Lucia reporter activity,RAW-Dual [1]; agonist: LPS (TLR4) 0.1 ug/mL,1.02
C=C1c2cccc(O)c2C(=O)C2=C(O)C3(O)C(=O)C(C(N)=O)=C(O)C(N(C)C)C3C(O)C12.Cl (centres undefined) (library stock concentration (final ~1000-fold dilution): 10 mM water),IRF Lucia reporter activity,RAW-Dual [1]; [4],1.22
same,IRF Lucia reporter activity,RAW-Dual [1]; agonist: LPS (TLR4) 0.1 ug/mL,0.852
C=C1c2cccc(O)c2C(=O)C2=C(O)C3(O)C(=O)C(C(N)=O)=C(O)C(N(C)C)C3C(O)C12.Cl (centres undefined),IRF Lucia reporter activity,"RAW-Dual [2]; library stock concentration (final ~1000-fold dilution): 10 mM water, cytotoxicity flag (confluency mask): not cytotoxic",1.35
CCN(CC)CCOc1ccc(Nc2ncc3cc(-c4c(Cl)cccc4Cl)c(=O)n(C)c3n2)cc1 (library stock concentration (final ~1000-fold dilution): 10 mM),IRF Lucia reporter activity,RAW-Dual [3]; [4],0.107
same,IRF Lucia reporter activity,RAW-Dual [3]; agonist: LPS (TLR4) 0.1 ug/mL,0.0105
Cc1sc2c(c1C)C(c1ccc(Cl)cc1)=N[C@@H](CC(=O)NCCCCCCCCNC(=O)COc1cccc3c1C(=O)N(C1CCC(=O)NC1=O)C3=O)c1nnc(C)n1-2 (some centres undefined) (library stock concentration (final ~1000-fold dilution): 10 mM),IRF Lucia reporter activity,RAW-Dual [3]; [4],0.189
same,IRF Lucia reporter activity,RAW-Dual [3]; agonist: LPS (TLR4) 0.1 ug/mL,0.244
CC(C)C(CO)Nc1nc(Nc2cccc(Cl)c2)c2ncn(C(C)C)c2n1 (centres undefined) (library stock concentration (final ~1000-fold dilution): 10 mM),IRF Lucia reporter activity,RAW-Dual [1]; [4],0.0133
same,IRF Lucia reporter activity,RAW-Dual [1]; agonist: LPS (TLR4) 0.1 ug/mL,0.152
CNC(=O)c1ccc(Nc2ncc(C(F)(F)F)c(NCc3nccnc3N(C)S(C)(=O)=O)n2)cc1 (library stock concentration (final ~1000-fold dilution): 2 mM),IRF Lucia reporter activity,RAW-Dual [1]; [4],0.464
same,IRF Lucia reporter activity,RAW-Dual [1]; agonist: LPS (TLR4) 0.1 ug/mL,0.119
CC(C)(C)c1ccc(S(=O)(=O)/C=C/C#N)cc1 (library stock concentration (final ~1000-fold dilution): 10 mM),IRF Lucia reporter activity,RAW-Dual [1]; [4],0.00698
same,IRF Lucia reporter activity,RAW-Dual [1]; agonist: LPS (TLR4) 0.1 ug/mL,0.00878
same,IRF Lucia reporter activity,RAW-Dual [3]; [4],0.0107 ± 0.00056
same,IRF Lucia reporter activity,RAW-Dual [3]; agonist: LPS (TLR4) 0.1 ug/mL,0.0214 ± 0.0092
CC(C)(C)c1ccc(S(=O)(=O)/C=C/C#N)cc1,IRF Lucia reporter activity,RAW-Dual [2]; [6],0.403 ± 0.54
CCNC(=O)C#Cc1ccc2c(c1)NC(=O)/C2=C(\Nc1ccc(CN(C)C)cc1)c1ccccc1 (library stock concentration (final ~1000-fold dilution): 10 mM),IRF Lucia reporter activity,RAW-Dual [3]; [4],0.0141
same,IRF Lucia reporter activity,RAW-Dual [3]; agonist: LPS (TLR4) 0.1 ug/mL,0.0123
Cc1cc(N2CCOCC2)ccc1Nc1nc(NC2CCCCC2)c2nc[nH]c2n1 (library stock concentration (final ~1000-fold dilution): 10 mM),IRF Lucia reporter activity,RAW-Dual [1]; [4],0.536
same,IRF Lucia reporter activity,RAW-Dual [1]; agonist: LPS (TLR4) 0.1 ug/mL,0.674
Cc1cc(N2CCOCC2)ccc1Nc1nc(NC2CCCCC2)c2nc[nH]c2n1,IRF Lucia reporter activity,RAW-Dual [2]; [5],0.884
COc1ccc(-c2nc(-c3cc(C(F)(F)F)cc(C(F)(F)F)c3)n(Cc3ccc(C(N)=O)cc3)c2-c2ccc(OC)cc2)cc1 (library stock concentration (final ~1000-fold dilution): 10 mM),IRF Lucia reporter activity,RAW-Dual [1]; [4],0.676
same,IRF Lucia reporter activity,RAW-Dual [1]; agonist: LPS (TLR4) 0.1 ug/mL,1.1
CCCNC(=O)Nc1ccc(Oc2ncnc3cc(OC)c(OC)cc23)cc1Cl,IRF Lucia reporter activity,RAW-Dual [2]; [5],0.93
CCCNC(=O)Nc1ccc(Oc2ncnc3cc(OC)c(OC)cc23)cc1Cl (library stock concentration (final ~1000-fold dilution): 10 mM),IRF Lucia reporter activity,RAW-Dual [1]; [4],0.817
same,IRF Lucia reporter activity,RAW-Dual [1]; agonist: LPS (TLR4) 0.1 ug/mL,0.856
O=C(NCc1ccccn1)Nc1nnc(-c2ccco2)o1 (library stock concentration (final ~1000-fold dilution): 10 mM),IRF Lucia reporter activity,RAW-Dual [1]; [4],0.858
same,IRF Lucia reporter activity,RAW-Dual [1]; agonist: LPS (TLR4) 0.1 ug/mL,1.03
COC1=CC(=O)c2ccccc2C1=O,IRF Lucia reporter activity,RAW-Dual [2]; [6],0.0543
COC1=CC(=O)c2ccccc2C1=O (library stock concentration (final ~1000-fold dilution): 10 mM),IRF Lucia reporter activity,RAW-Dual [3]; [4],0.0142
same,IRF Lucia reporter activity,RAW-Dual [3]; agonist: LPS (TLR4) 0.1 ug/mL,0.0169
Cc1cn(-c2cc(NC(=O)c3ccc(C)c(Nc4nccc(-c5cccnc5)n4)c3)cc(C(F)(F)F)c2)cn1 (library stock concentration (final ~1000-fold dilution): 10 mM),IRF Lucia reporter activity,RAW-Dual [1]; [4],1.23
same,IRF Lucia reporter activity,RAW-Dual [1]; agonist: LPS (TLR4) 0.1 ug/mL,1.5
Cc1cn(-c2cc(NC(=O)c3ccc(C)c(Nc4nccc(-c5cccnc5)n4)c3)cc(C(F)(F)F)c2)cn1,IRF Lucia reporter activity,RAW-Dual [2]; [5],1.07
Br.COc1cc(Br)c(Nc2nc(-c3c(C)nc4ncccn34)cs2)c(Br)c1 (library stock concentration (final ~1000-fold dilution): 10 mM),IRF Lucia reporter activity,RAW-Dual [1]; [4],0.318
same,IRF Lucia reporter activity,RAW-Dual [1]; agonist: LPS (TLR4) 0.1 ug/mL,2.19
Br.COc1cc(Br)c(Nc2nc(-c3c(C)nc4ncccn34)cs2)c(Br)c1,IRF Lucia reporter activity,RAW-Dual [2]; [5],1.37
O=c1[nH]c(=O)c2nc3ccccc3nc2[nH]1 (library stock concentration (final ~1000-fold dilution): 2 mM),IRF Lucia reporter activity,RAW-Dual [1]; [4],0.892
same,IRF Lucia reporter activity,RAW-Dual [1]; agonist: LPS (TLR4) 0.1 ug/mL,1.12
